Data from article PMC12136788.
Some of the results follow.

B1: chr17:76725537:76725647:-|CDS|ENSG00000070495|unk|FALSE|unique (ssRNA)
RNA: GGGAGUUCUACAGUCCGACGAUCUACUCAGUGAAGAUGAAGAUGAAAUACUACAUCGAGUACAUGGAGAGCACUCGAGAUGAUAGUCCCCUUUACAUCUUUGACAGCAGCUAUGGUGAACACCCUAAAAGAAGGAAACUUUUGCAACAGAGGAUUGAGCAUCA
B2: chr20:45293444:45293825:-|three_prime_utr|ENSG00000124159|control|control|control (ssRNA)
RNA: GGGAGUUCUACAGUCCGACGAUCCGGGGCGGAGGCGCUGGCGGGCUUCCGGCAUUGAGCUGAGUUGGCCUCGCCCGGACCAUUAGGCGGACUGCGGCGUCAGGGGGAUAGCGGGUGGUGAGGGAAGGGGCACGUGCUAGACCGCAACAGAGGAUUGAGCAUCA
B3: chr17:41822664:41822765:+|3pUTR|ENSG00000141756|msi1|FALSE|unique (ssRNA)
RNA: GGGAGUUCUACAGUCCGACGAUCUUCCUUAAAAUGUUUGGAUUUGCAAAGCCAAUUUGGGGCCUGUGGAGCCUGGGGUUGGAUAGGGCCAUGGCUGGUCCCCCACCAUACCUCCCCUCCACAUCACUGACACAGCUGAGCUUGCAACAGAGGAUUGAGCAUCA
B4: chr22:41636480:41636706:+|CDS|ENSG00000196419|unk|FALSE|unique (ssRNA)
RNA: GGGAGUUCUACAGUCCGACGAUCAUGGGCCACGGAUCUGACUACUCACUCAGUGAAGUGCUGUGGGUCUGUGCCAACCUCUUUAGUGAUGUCCAAUUCAAGAUGAGUCAUAAGAGGAUCAUGCUGUUCACCAAUGAAGACAACCAACAGAGGAUUGAGCAUCA
B5: chr12:14501823:14501924:+|3pUTR|ENSG00000171681|unk|total|mutant (ssRNA)
RNA: GGGAGUUCUACAGUCCGACGAUCUUUUGUUGUUUGCUCUUUUGCUUUAAAUAUUCUCCAAAUUACCAUUUAUGCAACAUGGUCCGGGUUAAUACUGCAUGGUAUUCAUUUAUCUUGUUUCAUGAACUUUCCAGUACUGUACAACAACAGAGGAUUGAGCAUCA
B6: chr5:137939581:137939637:-|3pUTR|ENSG00000031003|msi1_unk|total|mutant (ssRNA)
RNA: GGGAGUUCUACAGUCCGACGAUCUGUCCGUAAAAUUUUGCAAUUCGCUGGUCACACAGCUCCCGGAUGAAGAUAACAGUUGGCCGACCAAAAGGUGACCUCGCUCCGUAUAUUGAAAACACACACCACACAUCACACACAGAACAACAGAGGAUUGAGCAUCA
B7: chr4:70689993:70690094:+|CDS|ENSG00000132467|unk|total|mutant (ssRNA)
RNA: GGGAGUUCUACAGUCCGACGAUCAGAGCCAAAAUCCGAAGAAGAGGCCAGGUUCGUGAAGUUCGUAAAGAAGAGCAACGUUACCGUGGUGAAUUAUCUGGCAUUCGUGCAGGAGUUAAAAAGAGCAUUAAGCUUAAAUGAAGUCAACAGAGGAUUGAGCAUCA
B8: ENSG00000021826:stop:overlap|stop_codon|ENSG00000021826|stop_codon|NA|stop_codon (ssRNA)
RNA: GGGAGUUCUACAGUCCGACGAUCGCAAGGUGGACUCCAAGAGUCUUUUCCACUACAGGCAGUACAGUGCUGGAAAAGCAGCAUAGAGAUGCAGACACCCCAGCCCCAUUAUUAAAUCAACCUGAGCCACAUGUUAUCUAAAGGCAACAGAGGAUUGAGCAUCA
B9: ENSG00000198589:be:win_4701|CDS|ENSG00000198589|bound_else_gene|NA|bound_elsewhere_windowed (ssRNA)
RNA: GGGAGUUCUACAGUCCGACGAUCCAGUGAAAAUGAGAAUGUAUCACUCUCUGAAAUCACACCAGCAGCAUUCAGCACUUUAACUACGGCAUCAGUGGAAGAAUCUGAAAGCACAUCAUCUGCUCGAAGGAGGGACUCAGGCAUCAACAGAGGAUUGAGCAUCA
B10: chrX:51490010:51491748:-|three_prime_utr|ENSG00000196368|control|control|control (ssRNA)
RNA: GGGAGUUCUACAGUCCGACGAUCACUCCUUCCCUGUCUAUACCACUGACUCUUGCUCUGGUUGUUGUACUCUUAUACGUGAAUAGACUCUUAAUUCAGCACCUAUAGCCUUUUGUUGUGCUUUUUUGAUGUGUCUGCCUUCAUCAACAGAGGAUUGAGCAUCA
B11: chr15:77046258:77046342:-|3pUTR|ENSG00000140391|msi1_unk|total|mutant (ssRNA)
RNA: GGGAGUUCUACAGUCCGACGAUCAAAAAUAUUUACUGCCGUCCAAUAAGACCGCAGCUGUACAAAAUGACUAAAACCGAUUGCCGGAUCAUAUGGCGUAUAUCUUGGUUCAUCUUCAAAAUCAGAGACUGAGCUUUGAAACUACAACAGAGGAUUGAGCAUCA
B12: chr8:70573615:70573716:-|3pUTR|ENSG00000067167|msi1|total|mutant (ssRNA)
RNA: GGGAGUUCUACAGUCCGACGAUCCAGUGUUCACAUCUUGUUCCCCAUUUCUCACUUGUGUCACCAGCUGUUUGUGCCAUUUUCCGUGUAAAAGUUGCAGACCUAUCCGAUCUGCAGUUUAAGUUGCCAUGCUGCCCGGAAAUUCAACAGAGGAUUGAGCAUCA
B13: ENSG00000070961:be:win_1951|CDS|ENSG00000070961|bound_else_gene|NA|bound_elsewhere_windowed (ssRNA)
RNA: GGGAGUUCUACAGUCCGACGAUCGCAUUCAGAGAUUUUCCAGCAGGAGAACCAGAACCAGAGUGGGAUAAUGAAAAUGAUAUUGUCACCGGCCUUACAUGCAUUGCUGUUGUGGGGAUUGAAGAUCCUGUGAGACCUGAGGUGCAACAGAGGAUUGAGCAUCA
B14: ENSG00000198589:be:win_6851|CDS|ENSG00000198589|bound_else_gene|NA|bound_elsewhere_windowed (ssRNA)
RNA: GGGAGUUCUACAGUCCGACGAUCAAGUUCCAAAGUUUCACUAUGGUACUCAUUACUCAACUGCAAGUUUUGUUCUUGCAUGGCUGCUAAGAAUAGAACCCUUUACAACUUAUUUCCUAAAUUUGCAAGGAGGCAAAUUUGAUCCAACAGAGGAUUGAGCAUCA
B15: chr2:46903092:46903222:-|3pUTR|ENSG00000180398|msi1|FALSE|unique (ssRNA)
RNA: GGGAGUUCUACAGUCCGACGAUCAAGCAGAAACCCCUGAUAAACUGAUCAGAUCUCAUGAGACUUAUUCACUGUCACGAGAAUAGCACGGGAAAGACUGGCCCCCAUGAUUCAAUUACCUCCCCCUGGGUCUGUCCCACAACACAACAGAGGAUUGAGCAUCA
B16: ENSG00000140057:stop:overlap|stop_codon|ENSG00000140057|stop_codon|NA|stop_codon (ssRNA)
RNA: GGGAGUUCUACAGUCCGACGAUCCGCGGCCUGACUUUGCGGUGGAGACGUACUCUGUAAGUCCCGGAGGCUCUGGCCAGGAGUAGACAGAGGGAAGAGUCACCUUCCGCUCCAACGCCUUGACAACUUGUUUUACUGUUUGCCCAACAGAGGAUUGAGCAUCA
B17: chr13:38882223:38882324:+|3pUTR|ENSG00000150893|msi1|FALSE|unique (ssRNA)
RNA: GGGAGUUCUACAGUCCGACGAUCAGAAAAAUAAGGUCAGGAGAAAAAGAAUAAUGCCUACAGAUUAUCCUUCAGAUGCUGGCUAGAAUCCCCUUUGACUUCUAGCCAUAAGCUGGCCACAUUGGACAUCUUGGUCACUGCAGACAACAGAGGAUUGAGCAUCA
B18: ENSG00000198589:be:win_4051|CDS|ENSG00000198589|bound_else_gene|NA|bound_elsewhere_windowed (ssRNA)
RNA: GGGAGUUCUACAGUCCGACGAUCGUCAUCUUUGUACACAACACAAUUCAUCUCAUCUCUCAAGUGAUGGACAAUAUGGUCAUGGCUUGUGGGGGUAUACUGCCAUUGCUUUCAGCUGCUACAUCGGCUACACAUGAACUGGAACAACAGAGGAUUGAGCAUCA
B19: chr2:1633824:1633925:-|3pUTR|ENSG00000130508|msi1|FALSE|unique (ssRNA)
RNA: GGGAGUUCUACAGUCCGACGAUCAUUUAAUUCUUUUAAAAUGAAAAAUUGGUGCUACUAUUAAAUUGCACAGUUGAAUCAUUUAGGCGCCUAAAUUGAUUUUGCCUCCCAACACCAUUUCUUUUUAAAUAAAGCAGGAUACCUCAACAGAGGAUUGAGCAUCA
B20: chr10:72062367:72062468:-|3pUTR|ENSG00000107742|unk|total|mutant (ssRNA)
RNA: GGGAGUUCUACAGUCCGACGAUCCCUUGAUCCACACUGCUCCUGGCAGAGUGAGUCACCCAAAGGCCCCUUCGGCCUCCUUGCCGCUGUUUUCUUUCCUUUUGUUGUUGGUUUUAAAAUACAUUCACACACAAAUACAAAUUGCAACAGAGGAUUGAGCAUCA
B21: chr7:101138022:101138407:+|3pUTR|ENSG00000106366|msi1|FALSE|unique (ssRNA)
RNA: GGGAGUUCUACAGUCCGACGAUCCUCUUGGUGGGGAGGGGUGUACCUAAAUAUUUAUCAUAUCCUUGCCCUUGAGUGCUUGUUAGAGAGAAAGAGAACUACUAAGGAAAAUAAUAUUAUUUAAACUCGCUCCUAGUGUUUCUUCAACAGAGGAUUGAGCAUCA
B22: chr10:32268825:32268926:-|3pUTR|ENSG00000120616|unk|FALSE|unique (ssRNA)
RNA: GGGAGUUCUACAGUCCGACGAUCUGGGGACUUGACAGCAAUGCUCAUCUCUCAUGCUUCAAUUUUUCUUUUCUUACUGUUAAUAGGAAAAAAAUCAACAUCUGUAAAUUAAGAAUACAGCAAUUAUCUGUACAGUACUGCAUACAACAGAGGAUUGAGCAUCA

Each binder was assayed against T1, UNK ZnF1-6 (called full-length) (human, UniProt Q9C0B0 30-357) (assay: nsRBNS (natural sequence RNA bind-n-seq); RBNS binding buffer (assumed for nsRBNS): 25 mM Tris pH 7.5, 150 mM KCl, 3 mM MgCl2, 0.01% Triton X-100, 500 ug/ml BSA, 20 U/ml SUPERase-In, 4 C; UNK is unkempt and MSI1 is Musashi-1; names of the RNAs are library labels; protein concentration not given here; high values mean tight binding).
T1 sequence: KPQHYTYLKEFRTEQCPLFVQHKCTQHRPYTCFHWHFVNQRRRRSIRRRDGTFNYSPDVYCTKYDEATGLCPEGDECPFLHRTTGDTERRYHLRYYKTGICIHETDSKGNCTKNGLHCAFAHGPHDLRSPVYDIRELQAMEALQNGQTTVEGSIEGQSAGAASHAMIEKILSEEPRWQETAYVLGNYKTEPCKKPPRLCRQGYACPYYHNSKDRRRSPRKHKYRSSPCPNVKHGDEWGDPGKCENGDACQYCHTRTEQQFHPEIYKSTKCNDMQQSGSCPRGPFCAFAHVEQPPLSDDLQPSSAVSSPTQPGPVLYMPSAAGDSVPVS
B1 showed a binding signal of 0.475 enrichment R. B2 was tested, and the binding signal was 1.16 enrichment R. B3 gave a binding signal of 0.73 enrichment R. B4 was tested, and the binding signal was 0.565 enrichment R. In the case of B5, the binding signal is reported as 0.446 enrichment R. In the case of B6, the binding signal is reported as 0.877 enrichment R. Binder B7 has a binding signal of 0.467 enrichment R. Work on B8 yielded a binding signal of 0.445 enrichment R. B9 showed a binding signal of 0.55 enrichment R. B10 was tested, and the binding signal was 0.672 enrichment R. B11 was tested, and the binding signal was 0.245 enrichment R. For B12, the binding signal was 0.491 enrichment R. With B13 the binding signal was 0.666 enrichment R. For B14, the binding signal was 0.489 enrichment R. With B15 the binding signal was 0.87 enrichment R. Binder B16 has a binding signal of 0.884 enrichment R. B17 gave a binding signal of 0.337 enrichment R. B18 showed a binding signal of 0.804 enrichment R. B19 gave a binding signal of 0.713 enrichment R. Binder B20 has a binding signal of 0.476 enrichment R. B21 showed a binding signal of 1.63 enrichment R. In the case of B22, the binding signal is reported as 0.657 enrichment R.
